In all, about 360,000 compounds went through this assay and about 16,000 (4.4%) were called active. The shares of active, inactive and inconclusive entries below differ from those in the screen. The call rests on the fitted dose curve; in most records, active means well fitted inhibition curve with a large enough effect; inconclusive means small, poorly fitted or top-dose-only effect; inactive means no such curve, though single readings can be large or run the other way. Potencies of inconclusive entries are doubtful fits and often do not repeat.
Biological target: Bromodomain adjacent to zinc finger domain protein 2B (Homo sapiens) (UniProt Q9UIF8)
Assay: qHTS Assay for Inhibitors of BAZ2B; further: nearly all actives have a fitted effect of over 60% in size
Details: AlphaScreen BAZ2B-H3K14Ac peptide displacement; activity change, negative = inhibition: at 114 µM (top of the series)
Method in brief: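 BAZ2B 50 nM plus b-H3(5-23)K14Ac 50 nM, PBS pH 7.4/0.01% Tween-20, 30 min RT; compound added (max 110 uM), 30 min RT; streptavidin donor/Ni-chelate acceptor beads 10 ug/mL final, 20 min dark; AlphaScreen read.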
On the % scale 0 is the no-effect control and ±100 the full control effect; potency means the concentration at half of the fitted maximal effect; tags describe the fitted curve by direction and shape.

Chain of UniProt Q9UIF8 (Q9UIF8 whole entry, looked up, the tested form may be a part): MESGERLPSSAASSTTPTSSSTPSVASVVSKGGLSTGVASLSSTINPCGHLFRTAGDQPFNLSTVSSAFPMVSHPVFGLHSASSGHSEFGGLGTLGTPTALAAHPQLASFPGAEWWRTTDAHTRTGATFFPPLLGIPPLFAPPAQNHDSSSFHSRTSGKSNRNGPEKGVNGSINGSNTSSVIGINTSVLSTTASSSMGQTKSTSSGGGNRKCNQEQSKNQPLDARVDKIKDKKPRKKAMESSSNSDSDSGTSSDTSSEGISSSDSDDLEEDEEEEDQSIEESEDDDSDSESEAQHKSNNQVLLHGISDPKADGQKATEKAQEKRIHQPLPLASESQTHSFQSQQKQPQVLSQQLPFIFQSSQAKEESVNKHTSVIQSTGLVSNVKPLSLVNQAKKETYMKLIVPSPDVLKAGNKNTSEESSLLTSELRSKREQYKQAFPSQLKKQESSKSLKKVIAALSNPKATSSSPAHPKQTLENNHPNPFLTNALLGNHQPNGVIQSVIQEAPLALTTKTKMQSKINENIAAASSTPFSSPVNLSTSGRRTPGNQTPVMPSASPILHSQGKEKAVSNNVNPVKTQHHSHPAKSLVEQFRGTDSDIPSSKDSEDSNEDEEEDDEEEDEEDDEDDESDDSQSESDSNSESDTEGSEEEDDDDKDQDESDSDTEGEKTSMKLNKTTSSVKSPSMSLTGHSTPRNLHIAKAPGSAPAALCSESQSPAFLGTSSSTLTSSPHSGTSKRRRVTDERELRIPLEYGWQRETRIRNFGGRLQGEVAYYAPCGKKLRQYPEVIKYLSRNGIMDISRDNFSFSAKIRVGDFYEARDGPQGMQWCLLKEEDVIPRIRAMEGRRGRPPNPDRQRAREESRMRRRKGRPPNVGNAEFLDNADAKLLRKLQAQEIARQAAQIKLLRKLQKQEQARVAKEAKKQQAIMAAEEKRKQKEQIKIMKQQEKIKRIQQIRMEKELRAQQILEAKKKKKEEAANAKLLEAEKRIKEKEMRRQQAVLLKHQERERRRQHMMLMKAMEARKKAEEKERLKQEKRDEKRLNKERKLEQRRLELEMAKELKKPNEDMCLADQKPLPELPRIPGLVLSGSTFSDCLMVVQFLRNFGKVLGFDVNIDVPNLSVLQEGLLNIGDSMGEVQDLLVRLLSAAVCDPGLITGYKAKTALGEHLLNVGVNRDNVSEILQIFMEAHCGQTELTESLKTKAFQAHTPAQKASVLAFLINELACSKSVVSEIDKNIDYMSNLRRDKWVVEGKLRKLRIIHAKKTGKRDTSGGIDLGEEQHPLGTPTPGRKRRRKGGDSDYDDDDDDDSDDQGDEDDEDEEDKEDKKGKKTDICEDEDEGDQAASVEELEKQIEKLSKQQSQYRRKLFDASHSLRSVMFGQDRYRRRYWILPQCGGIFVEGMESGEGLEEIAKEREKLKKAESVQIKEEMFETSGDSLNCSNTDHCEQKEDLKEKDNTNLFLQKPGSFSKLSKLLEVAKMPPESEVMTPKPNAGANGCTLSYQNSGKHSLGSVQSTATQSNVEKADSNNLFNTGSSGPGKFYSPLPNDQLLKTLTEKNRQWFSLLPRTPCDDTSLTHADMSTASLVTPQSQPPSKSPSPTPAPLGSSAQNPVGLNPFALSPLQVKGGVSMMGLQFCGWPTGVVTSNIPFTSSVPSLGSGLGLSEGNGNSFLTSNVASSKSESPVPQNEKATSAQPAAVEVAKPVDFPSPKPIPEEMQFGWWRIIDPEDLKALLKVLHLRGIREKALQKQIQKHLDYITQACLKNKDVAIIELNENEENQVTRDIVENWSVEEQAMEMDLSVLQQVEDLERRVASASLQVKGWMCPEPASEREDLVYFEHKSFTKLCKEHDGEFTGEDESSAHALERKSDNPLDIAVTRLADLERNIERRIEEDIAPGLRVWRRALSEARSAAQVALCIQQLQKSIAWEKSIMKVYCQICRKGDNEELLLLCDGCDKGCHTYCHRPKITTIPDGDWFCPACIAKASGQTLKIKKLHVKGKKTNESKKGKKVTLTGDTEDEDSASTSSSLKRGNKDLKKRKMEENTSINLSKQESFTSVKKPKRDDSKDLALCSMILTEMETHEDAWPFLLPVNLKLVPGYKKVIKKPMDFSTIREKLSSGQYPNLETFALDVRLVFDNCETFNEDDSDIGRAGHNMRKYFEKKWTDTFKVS

Row | Compound | Potency | activity change, negative = inhibition
1 | Cc1ccc(NC(=S)Nc2cccc3cnccc23)cc1 | inconclusive: 79.4 µM [inhibitor, single point] | 
2 | COCCNC(=S)N(CCc1c(C)[nH]c2ccc(C)cc12)Cc1cccnc1 | inconclusive: 56.2 µM [inhibitor, partial curve] | 
3 | CCOc1ccc(CNC(=O)CCC(=O)N2CC3CCCN3c3ccccc32)cc1 (stereo not given) | active: 50.1 µM | 
4 | CCc1nc2cccnc2n1-c1ccc(CC(=O)Nc2ccccc2Cl)cc1 |  | inactive: -5%
5 | CC1CCCN(CCCOc2ccccc2-c2ccccc2)C1 (stereo not given) | active: 39.8 µM | 
6 | COc1ccc(Cl)cc1NC(=O)c1cc(S(=O)(=O)N2CCC(C)CC2)cn1C |  | inactive: 0.374%
7 | Cc1cccc(C)c1N1CCN(C(=O)Nc2ccc3c(c2)OCCO3)CC1 | inconclusive: 89.1 µM [inhibitor, single point] | 
8 | O=C(NCC(c1cccs1)N1CCOCC1)c1ccccc1NS(=O)(=O)c1cccc([N+](=O)[O-])c1 (stereo not given) | inconclusive: 79.4 µM [inhibitor, single point] | 
9 | COc1ccc(C)cc1Nc1nc2ccccc2c2nnc(C)n12 | inconclusive: 89.1 µM [inhibitor, single point] | 
10 | CCN/N=C(\Cc1nc2ccccc2[nH]1)c1ccccc1 |  | inactive: -7.1%
11 | CC1CCCN(c2ccc(C(=O)NCc3ccco3)cc2[N+](=O)[O-])C1 (stereo not given) | active: 44.7 µM | 
12 | COc1ccc(OC)c(S(=O)(=O)Nc2cc3c(cc2N2CCCC2)n(C)c(=O)c(=O)n3C)c1 | active: 50.1 µM | 
13 | CC(C)c1nc2ccc(C(=O)NCc3ccc(N(C)C)cc3)cc2o1 | inconclusive: 44.7 µM [inhibitor, partial curve] | 
14 | C=CC[n+]1c(-c2ccc(C)cc2)csc1NNC(=O)Nc1ccccc1 | active: 31.6 µM | 
15 | CCOC(=O)C1(Cc2cccc(OC)c2)CCN(Cc2cccc3c2OCO3)CC1 | inconclusive: 17.8 µM [inhibitor, full curve, poor fit] | 
16 | CCN(CC)S(=O)(=O)c1cccc(C(=O)Nc2ccc(S(=O)(=O)NC3=NCCCCC3)cc2)c1 |  | inactive: 0.89%
17 | CCOc1ccc(CN(CCC#N)C(=S)NC(=O)c2ccccc2)cc1 |  | inactive: -36.9%
18 | CNC(=S)N(CCc1c(C)[nH]c2ccc(Cl)cc12)Cc1cc(OC)c(OC)c(OC)c1 | inconclusive: 50.1 µM [inhibitor, partial curve] | 
19 | COc1cc(Cl)c(C)cc1NC(=O)CCn1c(=O)c2cccn2c2cccnc21 |  | inactive: -2.99%
20 | COc1cccc(/C=C(/C#N)c2ccc(Cl)cc2)c1OCc1cccc(C(=O)O)c1 | inconclusive: 79.4 µM [inhibitor, partial curve] | 
21 | Cc1cc(C(=O)NN=C2CCCCC2)c2ccccc2n1 |  | inactive: -6.28%
22 | CCS(=O)(=O)c1ccccc1C(=O)N(Cc1cccnc1)c1nc2cc(C)c(C)cc2s1 | inconclusive: 22.4 µM [inhibitor, full curve] | 
23 | CC1CN(CCCOc2ccc([N+](=O)[O-])cc2)CC(C)O1 (stereo not given) |  | inactive: -8.79%
24 | Cc1ccc(NC(=O)CSc2nnc(Cc3cccn3C)n2-c2ccc(F)cc2)c(C)c1 | inconclusive: 39.8 µM [inhibitor, full curve, poor fit] | 

Row | Compound | Potency | activity change, negative = inhibition
25 | CCn1c(NC(=O)Nc2cccc(C)c2C)cc2sccc21 | inconclusive: 70.8 µM [inhibitor, single point] | 
26 | COc1ccc(CNC(=O)COC(=O)c2cc(-c3ccco3)nc3ccccc23)cc1 | active: 50.1 µM | 
27 | O=C(Cn1c(=O)sc2ccccc21)Nc1nc2c(s1)CCCC2 | inconclusive: 63.1 µM [inhibitor, partial curve, poor fit] | 
28 | O=C(/C=C/c1ccco1)Nc1ccc(S(=O)(=O)N2CCOCC2)cc1 |  | inactive: -15.7%
29 | COc1ccc(-c2nc(CSCC(=O)NCCc3ccc(C)cc3)c(C)o2)cc1OC | inconclusive: 79.4 µM [inhibitor, single point] | 
30 | O=C(COC(=O)c1cc(Cl)ccc1[N+](=O)[O-])NCc1ccc(Cl)cc1Cl | inconclusive: 39.8 µM [inhibitor, full curve, poor fit] | 
31 | CNc1ccccc1-c1nc2ccccc2n(C)c1=O | inconclusive: 39.8 µM [inhibitor, partial curve] | 
32 | O=S(=O)(Nc1cccc(-c2cn3c(n2)SCC3)c1)c1ccccc1F | inconclusive: 50.1 µM [inhibitor, partial curve] | 
33 | O=S(=O)(NCC(c1ccco1)N1CCN(c2ccc(F)cc2)CC1)c1ccccc1 (stereo not given) | inconclusive: 70.8 µM [inhibitor, partial curve] | 
34 | CCOC(=O)CSc1nc2sc(C(=O)O)c(C)c2c(=O)[nH]1 |  | inactive: 2.86%
35 | CC(=O)Nc1ccc(NC(=S)NC(=O)/C=C/c2ccco2)cc1 | inconclusive: 89.1 µM [inhibitor, single point] | 
36 | CCCSc1cc(N2CCN(C)CC2)nc(-c2ccc(OC)cc2)n1 | active: 50.1 µM | 
37 | CC1=NNC(=O)/C1=C\c1cn(-c2ccccc2)nc1-c1ccccc1 | inconclusive: 11.2 µM [inhibitor, full curve] | 
38 | COCc1cc(C)[nH]c(=O)c1C(=O)NC12CC3CC(CC(C3)C1)C2 | inconclusive: 70.8 µM [inhibitor, single point] | 
39 | c1ccc2c(COn3nnc4ccccc43)cccc2c1 | inconclusive: 8.91 µM [inhibitor, single point] | 
40 | CCCCNC(=S)NC(=O)c1ccccc1Br |  | inactive: 10.4%
41 | O=c1cc(CN2CCN(S(=O)(=O)c3ccccc3)CC2)nc2ccc(Cl)cn12 |  | inactive: 2.66%
42 | CCN(C(=O)COC(=O)CCCN1C(=O)c2cccc3cccc(c23)C1=O)C1CCS(=O)(=O)C1 (stereo not given) |  | inactive: 8.87%
43 | COc1ccc(S(=O)(=O)Nc2ccc3c(c2)n(C)c(=O)n3C)cc1C | inconclusive: 79.4 µM [inhibitor, single point] | 
44 | CCCNc1c(N)n(-c2ccccc2)c(=O)[nH]c1=O | active: 56.2 µM | 
45 | CCCCNC(=O)CSc1nc2cc3c(cc2c(=O)n1CCCC(=O)NCc1ccc2c(c1)OCO2)OCO3 |  | inactive: 0.0295%
46 | COc1cc2c(cc1OC)/C(=C/C(=O)c1ccccc1F)NCC2 | inconclusive: 50.1 µM [inhibitor, partial curve] | 
47 | CCOc1ccccc1C(=O)N(Cc1ccc(N(C)C)cc1)CC1CCCO1 (stereo not given) | inconclusive: 39.8 µM [inhibitor, partial curve] | 
48 | CC(C)CC(=O)Nc1ccc(Cc2ccncc2)cc1 | inconclusive: 89.1 µM [inhibitor, single point] | 

Row | Compound | Potency | activity change, negative = inhibition
49 | O=C(O)c1ccc(-c2ccccc2C(F)(F)F)o1 | inconclusive: 89.1 µM [inhibitor, single point] | 
50 | Cc1ccc(NC(=O)CSc2nc(=O)n(Cc3ccncc3)c3c2CCC3)c(C)c1 |  | inactive: -2.97%
51 | O=C(O)CC12CC3CC(C1)CC(n1cncn1)(C3)C2 | inconclusive: 89.1 µM [inhibitor, single point] | 
52 | O=c1c(Cl)c(N2CCCCC2)cnn1-c1nc2ccccc2[nH]1 | inconclusive: 25.1 µM [inhibitor, single point] | 
53 | O=C(OCc1cc(=O)n2ccsc2n1)C1(c2ccc(Cl)cc2)CC1 | inconclusive: 89.1 µM [inhibitor, single point] | 
54 | CCN1CCC(C(N)=O)CC1 | inconclusive: 5.01 µM [inhibitor, single point] | 
55 | c1ccc(-c2ccccc2OCCN2CCCC2)cc1 | active: 56.2 µM | 
56 | O=C(Nc1ccc(F)c(Cl)c1)N1CCN2CCCCC2C1 (stereo not given) | inconclusive: 89.1 µM [inhibitor, single point] | 
57 | COc1ccccc1C(=O)NNC(=O)C(=O)N1CCCCC1 | inconclusive: 89.1 µM [inhibitor, single point] | 
58 | Cc1ccccc1C(=O)/C=C1\NC(=O)CS1 | inconclusive: 63.1 µM [inhibitor, partial curve, poor fit] | 
59 | COc1ccc(CC(=O)N/N=C/C=C/c2ccc3c(c2)OCO3)cc1OC | inconclusive: 79.4 µM [inhibitor, single point] | 
60 | Cc1onc(-c2cccc(Cl)c2Cl)c1C(=O)O/N=C(\N)c1ccc([N+](=O)[O-])o1 | inconclusive: 35.5 µM [inhibitor, partial curve] | 
61 | CCOc1cc(OCC)cc(C(=O)NCc2ccco2)c1 | inconclusive: 89.1 µM [inhibitor, single point] | 
62 | CCCCN(C(=O)c1cccc(S(=O)(=O)N2CCCCC2)c1)C1CCS(=O)(=O)C1 (stereo not given) | inactive | 
63 | Cc1ccc(OCC(=O)c2cc(C)n(-c3cc(C)on3)c2C)c([N+](=O)[O-])n1 | inconclusive: 50.1 µM [inhibitor, partial curve] | 
64 | COc1ccc(OCC(O)CNC(=O)/C=C/c2cccc([N+](=O)[O-])c2)cc1 (stereo not given) | inconclusive: 79.4 µM [inhibitor, single point] | 
65 | O=C(CSc1nnc2c(n1)[nH]c1ccccc12)NCc1ccco1 | inconclusive: 70.8 µM [inhibitor, single point] | 
66 | Cn1cccc1CNC(=O)Nc1ccc(Cl)cc1 | inconclusive: 56.2 µM [inhibitor, single point] | 
67 | COc1ccc(-n2c(CN3CCN(Cc4ccccc4)CC3)nc3ccc([N+](=O)[O-])cc3c2=O)c(OC)c1 | inconclusive: 50.1 µM [inhibitor, partial curve] | 
68 | Cc1cccc(NC(=O)C2CCN(S(=O)(=O)c3ccc4c(c3)NC(=O)CO4)CC2)c1C | inconclusive: 89.1 µM [inhibitor, single point] | 
69 | Cc1ccc(C2C(C(=O)c3cc4ccccc4o3)=C(O)C(=O)N2c2cc(C)on2)cc1 (stereo not given) | inconclusive: 25.1 µM [inhibitor, full curve] | 
70 | Clc1ccc(C2=CC(c3ccco3)n3ncnc3N2)cc1 (stereo not given) | inconclusive: 89.1 µM [inhibitor, single point] | 
